Measured values reported in PubChem BioAssay AID488969 (Vanderbilt High Throughput Screening Facility, 2010).
In all, about 110,000 compounds were measured (“z-score”: median about -0.1, highest 2% from about 2 on). The list shows a part of the results. Calls of active or inactive are those of the source.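 How the source made its calls: active means z-score in the third read window above 3 or below -3; inactive means the rest.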

Target: Metabotropic glutamate receptor 8 (Rattus norvegicus) (UniProt P70579)
Assay: mGluR8 Gi/Go-coupled signaling modulation – cell-based, rat, thallium flux, HTS, primary screen (AID 488969)
Details: HEK293 rat mGluR8, GIRK (G protein-gated inwardly rectifying potassium channel) thallium flux, FluoZin2; at 10 µM; stronger effect = higher value; submaximal glutamate (EC20) added with thallium

UniProt P70579, sequence (P70579 whole entry, looked up): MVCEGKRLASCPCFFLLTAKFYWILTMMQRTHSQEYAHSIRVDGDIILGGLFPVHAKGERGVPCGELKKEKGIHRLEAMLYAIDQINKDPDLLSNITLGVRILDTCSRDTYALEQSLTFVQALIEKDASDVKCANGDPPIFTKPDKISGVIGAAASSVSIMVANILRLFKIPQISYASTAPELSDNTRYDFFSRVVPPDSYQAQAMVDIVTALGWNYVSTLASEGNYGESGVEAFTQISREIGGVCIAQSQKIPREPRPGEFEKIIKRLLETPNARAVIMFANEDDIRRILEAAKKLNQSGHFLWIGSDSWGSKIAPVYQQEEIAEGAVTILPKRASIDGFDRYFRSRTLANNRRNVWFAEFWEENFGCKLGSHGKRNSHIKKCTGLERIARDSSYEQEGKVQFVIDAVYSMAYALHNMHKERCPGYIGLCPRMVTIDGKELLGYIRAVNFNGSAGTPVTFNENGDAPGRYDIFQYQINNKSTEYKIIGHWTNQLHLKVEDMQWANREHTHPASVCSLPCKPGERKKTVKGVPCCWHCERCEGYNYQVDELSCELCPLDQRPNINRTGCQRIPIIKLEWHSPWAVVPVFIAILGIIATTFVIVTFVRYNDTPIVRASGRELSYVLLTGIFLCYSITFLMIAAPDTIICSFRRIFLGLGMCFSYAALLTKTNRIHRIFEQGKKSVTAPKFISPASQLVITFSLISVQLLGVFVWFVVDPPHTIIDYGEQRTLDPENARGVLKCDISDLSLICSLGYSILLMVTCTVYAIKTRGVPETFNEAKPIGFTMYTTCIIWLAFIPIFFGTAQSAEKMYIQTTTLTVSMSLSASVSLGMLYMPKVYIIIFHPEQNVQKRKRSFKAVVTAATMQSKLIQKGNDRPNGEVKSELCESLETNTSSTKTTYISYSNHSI

| SMILES | z-score |
| --- | --- |
| Cc1ccc(Nc2nnc(SCC(=O)c3ccc(Br)s3)s2)c(C)c1 | 1.06 |
| CCOC(=O)c1sc(=S)n(-c2cccc(OC)c2)c1N | 0.326 |
| CCC(C)[C@H](NC(=O)OC(C)(C)C)C(=O)N/N=C/c1cccc2nccnc12 (stereo partly specified) | 0.114 |
| CCc1ccccc1NC(=O)c1ccccc1Sc1ccc([N+](=O)[O-])cc1Cl | 0.165 |
| Cc1ccc(NC2=NCCCCC2)cc1 | -0.722 |
| CC(C)(C#N)Nn1cnnc1 | -0.406 |
| COc1ccc(C2(CNC(=O)c3cccc([N+](=O)[O-])c3)CCOCC2)cc1OC | -0.337 |
| Cc1cc(C(=O)NC(=S)Nc2cccc(NC(=O)C(C)C)c2)ccc1[N+](=O)[O-] | 0.315 |
| O=S(=O)(c1ccc(Br)cc1)N1CCN(c2ccc3nnc(-c4ccccc4)n3n2)CC1 | -0.455 |
| CCOc1ccc(NCc2cc3c(C(C)(C)C)nn(-c4ccccc4)c3[nH]c2=O)cc1 | -0.079 |
| C=CCSc1nc2c(c(C3CC=CCC3)c1C#N)CCC2 (stereo unspecified) | 0.459 |
| Clc1ccc2c(N3CCCC3)ccnc2c1 | 2.36 |
| O=[N+]([O-])c1ccc(Cl)c(/C=N/n2c(C3CCCCC3)n[nH]c2=S)c1 | -1.39 |
| CCOc1ccc(OCC)c(S(=O)(=O)NCc2ccc3c(c2)OCO3)c1 | 0.112 |
| CC(Oc1ccc(Cl)cc1Cl)C(=O)Nc1ccc(N2CCN(C)CC2)cc1 (stereo unspecified) | -0.0257 |
| CCN(CC)C(=O)CSc1nc(-c2ccco2)cc(C(F)(F)F)c1C#N | -0.446 |
| COc1ccccc1OCC(=O)NCCSCc1ccc(Cl)cc1 | -0.896 |
| COc1ccc(NC(=O)CN(C)S(=O)(=O)c2ccc(Cl)cc2)cc1Cl | -0.376 |
| COc1cc(OC)c(OC)cc1C=NCC1(c2ccccc2)CCCC1 | 0.915 |
| Cc1ccc2nc(-c3ccc(SCC(=O)Nc4nnc(C)s4)nc3)[nH]c2c1 | -0.316 |
| O=C(NC1=NCCS1)c1ccc(Br)s1 | -0.212 |
| CCOc1ccc(S(=O)(=O)NCCCN2CCOCC2)cc1 | 0.0775 |
| CC1CCCC(NC(=O)COC(=O)c2ccccc2NC(=O)c2ccco2)C1C (stereo unspecified) | -0.294 |

| SMILES | z-score |
| --- | --- |
| CCOc1ccc(C(C)(C)C)cc1S(=O)(=O)N1CC(C)OC(C)C1 (stereo unspecified) | -0.263 |
| O=C(Cc1ccc(Cl)cc1)Nc1ccccc1CO | 0.184 |
| Cc1cc(C)n(-c2nc3ccccc3nc2N2CCC(C)CC2)n1 | -0.57 |
| COc1cccc(NC(=O)CSCc2n[nH]c(=O)[nH]2)c1 | -0.182 |
| Cc1cc(NC(=O)CSc2ccc3ccccc3c2)no1 | 0.118 |
| CC1CCC/C(=N\NC(=O)COc2ccc(Cl)cc2Cl)C1 (stereo unspecified) | 1.13 |
| Cn1c(=O)oc2cc(S(=O)(=O)N3CCN(c4ccc(F)cc4)CC3)ccc21 | 0.0473 |
| NS(=O)(=O)c1ccc(NC(=O)C2CCCO2)cc1 (stereo unspecified) | -0.087 |
| O=C(O)CC1=C(O)C(=O)N(c2ccccc2)C1c1ccc(Br)cc1 (stereo unspecified) | 0.0277 |
| CCC(C)NS(=O)(=O)c1ccc(S(=O)(=O)N(CCc2ccc(OC)c(OC)c2)Cc2cccs2)cc1 (stereo unspecified) | -0.265 |
| C=C(C)CSc1nc2nc(C)cc(C)n2n1 | -0.0365 |
| CCOC(=O)CSc1nsc(SCC(=O)OCC)c1C#N | -1.22 |
| CCn1c(=O)n(CC)c2cc(S(=O)(=O)NCCOc3ccccc3)c(C)cc21 | 0.0374 |
| CS(=O)(=O)N(CC(=O)NCC1CCCO1)Cc1ccc(Cl)cc1 (stereo unspecified) | 0.0219 |
| Cc1ccc(N=C2NC(=O)/C(=C/c3cccs3)S2)cc1C | -0.323 |
| Oc1ccc(-c2nc3ncccn3c2Nc2ccc3c(c2)OCO3)cc1 | -0.386 |
| c1ccc(-c2ncnc3nc4n(c23)CCC4)cc1 | 0.408 |
| C(=N\n1cnnc1)/c1cccn1-c1ccccc1 | 0.848 |
| COc1ccccc1C1/C(=C(\O)c2c(C)nc3c(C)cccn23)C(=O)C(=O)N1CCCN(C)C (stereo unspecified) | -0.521 |
| Nn1c(SCc2cccc(C(F)(F)F)c2)nnc1-c1ccco1 | 1.92 |
| O=C(NCc1ccco1)C12CN(Cc3ccccc3)CC1C(c1cccc([N+](=O)[O-])c1)=NO2 (stereo unspecified) | -0.343 |
| Cc1cc(C)c(S(=O)(=O)N2CCCCC2)cc1N(C)S(=O)(=O)c1ccc(Cl)cc1 | -0.144 |
| CC(=O)COc1ccc2c(-c3ccccc3)cc(=O)oc2c1 | 0.0164 |

| SMILES | z-score |
| --- | --- |
| O=C(Nc1nnc(SCc2ccccc2)s1)c1cc2c(s1)CCCC2 | -0.0564 |
| CCn1c2ccccc2c2cc(NC(=O)COC(=O)Cc3cn4ccsc4n3)ccc21 | -0.0951 |
| N#C/C(=C\c1cn(Cc2ccc(F)cc2)c2ccccc12)C(=O)NCc1ccco1 | -0.41 |
| COc1ccc(CCNC(=O)CSCc2ccc(Cl)cc2)cc1OC | 0.454 |
| O=C(Nc1ccc(Br)c(C(F)(F)F)c1)c1ccccc1 | 0.42 |
| CCN(CC)C(=O)CSc1nnc(CNc2ccc(F)cc2)o1 | -0.212 |
| O=C(/C=C/c1ccc(O)c(O)c1)c1ccc(S(=O)(=O)N2CCCCCC2)cc1 | -0.0669 |
| Clc1ccc(/C=N/Nc2ncnc3ccccc23)cc1Cl | -0.176 |
| CCOC(=O)c1c(NC(=O)CSc2nc3ccccc3o2)sc(C)c1C | -0.0559 |
| Cc1ccc(Cl)cc1N1CCN(C(=O)C2(S(=O)(=O)c3ccc(Cl)cc3)CC2)CC1 | 0.0583 |
| CSc1ccccc1Sc1cc(C(=O)O)c2ccccc2n1 | -0.623 |
| CC1=NN(C(=O)c2csc(C(C)C)c2)C(O)(C(F)(F)F)C1 (stereo unspecified) | -0.36 |
| CCCNCC1COc2ccccc2O1 (stereo unspecified) | -0.0887 |
| O=c1[nH]c(CN2CCN(S(=O)(=O)c3ccc(Cl)cc3)CC2)nc2cc(Cl)ccc12 | -0.242 |
| Cc1cccc(C)c1OC(=O)CN(c1ccc(Cl)cc1)S(C)(=O)=O | -2.06 |
| CCOC(=O)c1cnc(-n2nc(C)cc2C)nc1N1CC(C)OC(C)C1 (stereo unspecified) | -0.0793 |
| O=C(COc1ccc(S(=O)(=O)N2CCOCC2)cc1)NC1CCCC1 | 0.339 |
| Cc1ccc2oc(-c3cccc(NC(=O)c4cc(-n5cnnc5)ccc4Cl)c3)nc2c1 | -0.0315 |
| CCCCn1c(SC(C)C(=O)c2ccc(OC)cc2)nc2cc(S(N)(=O)=O)ccc21 (stereo unspecified) | -1.06 |
| COc1ccc(NC2=NC(=S)N(c3ccccc3C)C23CCCCC3)cc1 | active: 15.4 |
| COc1ccc(NC(=O)CN(Cc2ccccc2)Cc2ccccc2)cc1S(N)(=O)=O | -0.193 |
| c1ccc(-c2nc(NCCCN3CCOCC3)c3ccccc3n2)cc1 | 1.24 |
| Cc1cc(C)n2cc(CSc3nc4cc(Cl)ccc4o3)nc2n1 | -0.565 |

| SMILES | z-score |
| --- | --- |
| O=C(c1ccco1)N1CCN(C(=O)c2ccc(COc3ccc4c(c3)CCC4)o2)CC1 | -0.21 |
| CCOC(=O)CSc1[nH]c(=O)cc(C)c1C#N | -0.162 |
| Cc1nn(-c2ccccc2)c(=S)n1-c1ccccc1 | 0.514 |
| Cc1ccc(NC(=S)NC2CC3CCCC(C2)N3Cc2cccs2)cc1 (stereo unspecified) | -0.103 |
| O=C(NC(=S)Nc1ccccc1N1CCOCC1)c1ccc(-c2cc(Cl)ccc2Cl)o1 | 0.0698 |
| COc1c(F)c(F)c(C(=O)Nc2ccc3oc(-c4ccncc4)nc3c2)c(F)c1F | -0.29 |
| O=C(C(=O)N1CCc2ccccc2C1)c1cn(CC(=O)N2CCCCC2)c2ccccc12 | -0.582 |
| O=C(COC(=O)CC12CC3CC(CC(Br)(C3)C1)C2)NC(=O)NCc1ccco1 | 0.0373 |
| CCOC(=O)c1ccc2nc(NC(NC(C)=O)(C(=O)OC)C(F)(F)F)sc2c1 (stereo unspecified) | -1.45 |
| O=c1c2cnn(-c3ccccc3)c2ncn1Cc1ccccc1 | -0.353 |
| Cc1ccccc1N1CN(Cc2ccco2)CNC1=S | -0.154 |
| COc1ccc2cc(C)c3nnc(SCC(=O)Nc4nc(-c5ccccc5)cs4)n3c2c1 | -0.183 |
| CCn1cc(NC(=O)Nc2ccc(OC)c(OC)c2)c(C(N)=O)n1 | 0.576 |
| Cc1ccc(NC(=O)N2CCCC2C(=O)NCc2cccs2)cc1 (stereo unspecified) | 0.0555 |
| Cc1ccc(CNC(=O)c2coc(=O)c3ccccc23)o1 | -0.0847 |
| N#Cc1cc(Oc2ccccc2)c(-n2nnc3ccccc32)cc1C#N | 0.266 |
| CCOc1ccccc1C(=O)n1nc(C)cc1C | 0.292 |
| COc1ccc(C(=O)N2CCC(C(=O)Nc3ccc4c(c3)OCCO4)CC2)cc1 | -0.825 |
| COc1ccccc1C(=O)Nc1ccc(N2CCN(S(C)(=O)=O)CC2)cc1 | -0.118 |
| CCOC(=O)C1CCCN(c2c(Nc3cc(C)cc(C)c3)c(=O)c2=O)C1 (stereo unspecified) | 0.531 |
| O=C(O)C1C2CCC(C2)C1C(=O)Nc1nc2ccccc2s1 (stereo unspecified) | 0.745 |
| COCc1cc(C(C)=O)ccc1OC | -0.203 |
| COc1cccc(-c2nc(-c3ccccc3)no2)c1 | 0.14 |

| SMILES | z-score |
| --- | --- |
| Cn1cc(C(=O)NCC2COc3ccccc3O2)c(=O)c2cc(S(=O)(=O)N3CCCCC3)ccc21 (stereo unspecified) | 0.0561 |
| Cc1cc(C)c(S(=O)(=O)N(C)CC(=O)NC2CCCC2)c(C)c1 | -0.387 |
| CC(C)NC(=O)CC(=O)N/N=C/c1ccccc1F | 0.0011 |
| C/C(CCc1oc2c(Br)cc(Br)cc2c1-c1ccc(C)o1)=N\O | 0.0899 |
| C/C(=N/NC(=O)CNC(=O)Cc1ccccc1)c1ccco1 | 0.0499 |
| CCCc1cc(=O)[nH]c(SCC(=O)N(Cc2ccccc2)C(C)C)n1 | -0.715 |
| Cc1cccc(C)c1OCC(=O)N1CC2(C)CC1CC(C)(C)C2 (stereo unspecified) | 0.014 |
| O=C1N/C(=C/c2cccn2-c2ccc(F)cc2)C(=O)N1Cc1ccccc1 | -0.137 |
| CN(C)c1ccc(NC(=O)CSc2nc3ccccc3c(=O)n2C2CCCCC2)cc1 | 1.39 |
| CCN1CCCC1CNC(=O)c1cc2c(=O)n(C)c3ccccc3c2n1C (stereo unspecified) | -0.0866 |
| Cc1cc(C(F)(F)F)nc(NCc2cccnc2)n1 | 0.165 |
| COc1ccc(CC(=O)Nc2ccc3c(c2)CCC3)cc1 | 0.0703 |
| C/C(=N\NC(=O)C(C)Sc1ccccc1)C(C)(C)C (stereo unspecified) | 1.72e-05 |
| Cc1cc(C)c(S(=O)(=O)c2ccccc2)c(N(C)C)n1 | -0.174 |
| COc1cccc(C(=O)CN2CCN(S(=O)(=O)c3ccc(Br)cc3)CC2)c1 | -0.472 |
| Cc1c([N+](=O)[O-])c(C(=O)N2CCCC2)nn1C | -0.139 |
| Cn1c(C(=O)O)cc2cc(F)ccc21 | -0.516 |
| Cc1ccc2c(Cl)c(C(=O)Nc3cc(C)on3)sc2c1 | 0.0578 |
| Cc1[nH]nc2c1C(c1ccsc1C)C(C#N)=C(N)O2 (stereo unspecified) | -1.19 |
